Measurements reported in the supplement of paper PMC6206098.
± gives the uncertainty stated by the source. The sequences are guide strands of siRNAs; only the seed at positions 2 to 7 varies.

What was measured:
3LL = test: cell viability relative to siNT1 control; higher = less toxic; settings: concentration: 10 nM; 96 h; Mus musculus;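 note: Luminescence-based viability of cells reverse transfected in 384-well plates with lipid-complexed siRNAs built on a non-toxic 19mer backbone whose passenger strand carries 2′-O-methyl groups at positions 1 and 2, triplicates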
Procedure: (§1)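 Arrayed screen of 4096 siRNA duplexes, each carrying one of all possible 6mer seeds at guide-strand positions 2-7 in a fixed neutral 19mer scaffold (constant flanks: U at position 1, then ACAUGUAAACCA, plus a 3' AA overhang). The passenger strand is 2'-O-methylated at positions 1-2 so only the guide strand loads into RISC. Duplexes were reverse-transfected at 10 nM with RNAiMAX in triplicate in 384-well plates; viability was read by CellTiter-Glo ATP content 96 h after transfection. Values are % viability normalised to lipid-only wells (HeyA8, H460, M565) or to siNT1 (3LL).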

H460 = test: cell viability relative to lipid-only control; HeyA8 human ovarian and H460 human lung cancer; M565 mouse liver and 3LL mouse lung cancer; siNT1 is a non-toxic control siRNA; higher = less toxic; settings: concentration: 10 nM; 96 h; Homo sapiens
Procedure: as §1

HeyA8 = test: as above; settings: concentration: 10 nM; 96 h; Homo sapiens
Procedure: as §1

M565 = test: as above; settings: concentration: 10 nM; 96 h; Mus musculus
Procedure: as §1
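Throughout, for cell viability relative to lipid-only control: reverse lipid transfection in 384-well plates, in triplicate, of duplexes on a non-toxic 19mer backbone with passenger strand 2′-O-methylated at positions 1 and 2, luminescence viability read-out.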

| Sequence | cell viability (3LL) | cell viability (H460) | cell viability (HeyA8) | cell viability (M565) |
| --- | --- | --- | --- | --- |
| UAAUGAAACAUGUAAACCAAA | 119 ± 13% | 93.2 ± 14% | 94.2 ± 7.6% | 96 ± 14% |
| UAAUGACACAUGUAAACCAAA | 57 ± 9% | 64.3 ± 3.7% | 57.1 ± 2.6% | 24.2 ± 5.6% |
| UAAUGAGACAUGUAAACCAAA | 81.6 ± 5% | 82.7 ± 9.3% | 90.9 ± 7.6% | 79 ± 15% |
| UAAUGAUACAUGUAAACCAAA | 43.7 ± 3.6% | 70.2 ± 3.6% | 71.3 ± 3.1% | 79.3 ± 6.5% |
| UAAUGCAACAUGUAAACCAAA | 105 ± 20% | 86.6 ± 11% | 101 ± 8.2% | 105 ± 11% |
| UAAUGCCACAUGUAAACCAAA | 7.2 ± 1.8% | 29.9 ± 2.4% | 39.8 ± 6.4% | 5.78 ± 0.72% |
| UAAUGCGACAUGUAAACCAAA | 108 ± 12% | 101 ± 7.3% | 106 ± 4.2% | 94.8 ± 24% |
| UAAUGCUACAUGUAAACCAAA | 23.2 ± 5.7% | 60.2 ± 6.7% | 55.6 ± 6% | 31.4 ± 10% |
| UAAUGGAACAUGUAAACCAAA | 91.1 ± 9.7% | 76.6 ± 17% | 66.9 ± 5% | 35.3 ± 16% |
| UAAUGGCACAUGUAAACCAAA | 15.6 ± 1.8% | 62.6 ± 8.1% | 38.5 ± 3.5% | 9.8 ± 6.3% |
| UAAUGGGACAUGUAAACCAAA | 39.4 ± 4.7% | 80.3 ± 7.9% | 48.5 ± 3.8% | 39 ± 11% |
| UAAUGGUACAUGUAAACCAAA | 69.7 ± 6.7% | 75.1 ± 13% | 55.6 ± 3.4% | 14.7 ± 4.1% |
| UAAUGUAACAUGUAAACCAAA | 119 ± 8.1% | 103 ± 12% | 95.9 ± 4.7% | 87.2 ± 7% |
| UAAUGUCACAUGUAAACCAAA | 48.6 ± 5.9% | 100 ± 5.4% | 80.3 ± 7.4% | 23.4 ± 7.2% |
| UAAUGUGACAUGUAAACCAAA | 110 ± 12% | 73.6 ± 4% | 84.4 ± 11% | 91.2 ± 25% |
| UAAUGUUACAUGUAAACCAAA | 65.7 ± 5.8% | 75.2 ± 7.7% | 93.7 ± 7.8% | 59.5 ± 18% |
| UAAUUAAACAUGUAAACCAAA | 116 ± 6.3% | 93.6 ± 3.8% | 96.6 ± 11% | 92.3 ± 22% |
| UAAUUACACAUGUAAACCAAA | 57.4 ± 9.9% | 50 ± 8.4% | 40 ± 4.2% | 49.4 ± 10% |
| UAAUUAGACAUGUAAACCAAA | 110 ± 11% | 90.7 ± 0.92% | 82.6 ± 7.6% | 79.1 ± 17% |
| UAAUUAUACAUGUAAACCAAA | 105 ± 16% | 55.7 ± 5.8% | 50.4 ± 5.9% | 82.2 ± 13% |
| UAAUUCAACAUGUAAACCAAA | 109 ± 6.4% | 92.4 ± 1.7% | 91.4 ± 6.8% | 67.5 ± 19% |
| UAAUUCCACAUGUAAACCAAA | 50.1 ± 8.3% | 66.1 ± 5.6% | 52.4 ± 4.9% | 70.3 ± 14% |

| Sequence | cell viability (3LL) | cell viability (H460) | cell viability (HeyA8) | cell viability (M565) |
| --- | --- | --- | --- | --- |
| UAAUUCGACAUGUAAACCAAA | 118 ± 3.4% | 106 ± 14% | 97 ± 5.9% | 73.2 ± 12% |
| UAAUUCUACAUGUAAACCAAA | 83.8 ± 2.1% | 99 ± 8.4% | 76.4 ± 4.8% | 53.7 ± 9% |
| UAAUUGAACAUGUAAACCAAA | 103 ± 3.6% | 84.3 ± 2.4% | 94.4 ± 5.2% | 80.9 ± 13% |
| UAAUUGCACAUGUAAACCAAA | 17.4 ± 5.8% | 46.4 ± 4.9% | 49 ± 2% | 21.7 ± 6.9% |
| UAAUUGGACAUGUAAACCAAA | 96.7 ± 11% | 70.2 ± 6.8% | 72.3 ± 4.6% | 71.3 ± 10% |
| UAAUUGUACAUGUAAACCAAA | 46.8 ± 5% | 81.6 ± 3% | 44.7 ± 4.3% | 31 ± 4.5% |
| UAAUUUAACAUGUAAACCAAA | 118 ± 5.8% | 94.3 ± 4.2% | 102 ± 13% | 98 ± 20% |
| UAAUUUCACAUGUAAACCAAA | 47.7 ± 6.1% | 59.8 ± 4.2% | 83.9 ± 4.9% | 101 ± 23% |
| UAAUUUUACAUGUAAACCAAA | 107 ± 8.2% | 92.3 ± 5.1% | 86.11 ± 0.83% | 126 ± 14% |
| UACAAAAACAUGUAAACCAAA | 91.7 ± 9.8% | 84.7 ± 17% | 84.2 ± 3.2% | 75.3 ± 14% |
| UACAAACACAUGUAAACCAAA | 88.8 ± 8.9% | 82.1 ± 12% | 70.5 ± 1.8% | 37.7 ± 14% |
| UACAAAGACAUGUAAACCAAA | 84.3 ± 7.2% | 94.3 ± 7.7% | 80.4 ± 1.8% | 74.9 ± 11% |
| UACAAAUACAUGUAAACCAAA | 86.7 ± 10% | 79 ± 13% | 53.8 ± 3.2% | 64 ± 12% |
| UACAACAACAUGUAAACCAAA | 91 ± 14% | 92.3 ± 12% | 80.3 ± 4.1% | 85.2 ± 21% |
| UACAACCACAUGUAAACCAAA | 21.1 ± 1.6% | 37 ± 3.2% | 40.8 ± 2% | 15.2 ± 0.47% |
| UACAACGACAUGUAAACCAAA | 97.8 ± 15% | 85.7 ± 9.1% | 87 ± 4.9% | 85.4 ± 7.2% |
| UACAACUACAUGUAAACCAAA | 11.7 ± 4.4% | 66.1 ± 6.9% | 36.4 ± 6.7% | 51.9 ± 8.9% |
| UACAAGAACAUGUAAACCAAA | 87.4 ± 9.7% | 99.2 ± 3.9% | 75.8 ± 3.5% | 47.9 ± 8.2% |
| UACAAGCACAUGUAAACCAAA | 37.8 ± 1.2% | 64.7 ± 11% | 24.2 ± 2.7% | 10.1 ± 2.7% |
| UACAAGGACAUGUAAACCAAA | 54.5 ± 11% | 68.1 ± 4.5% | 62.5 ± 4% | 28.1 ± 4.8% |
| UACAAGUACAUGUAAACCAAA | 46 ± 5.3% | 63.8 ± 2.1% | 45 ± 5% | 17.5 ± 2.7% |
| UACAAUAACAUGUAAACCAAA | 97.1 ± 12% | 90.7 ± 7.6% | 89.6 ± 6.4% | 65.8 ± 4.5% |
